# Measurements taken from patent US20240076343A1.
# B1: 1H3-hIgG1-L6-hIL-2 (D20A/E95A/R38D) (protein)
# heavy: EVQLVESGGGLVQPGRSLKLSCAVSGFTFSDYAMAWVRQAPKKGLEWVATISYDGSRTYYRDSVKGRFTISRDNAKITLYLQMDSLRSEDTATYYCARHGSGYFDYWGQGVMVTVSS[not shown - human IgG1 constant region]SGGGGSAPTSSSTKKTQLQLEHLLLALQMILNGINNYKNPKLTDMLTFKFYMPKKATELKHLQCLEEELKPLEEVLNLAQSKNFHLRPRDLISNINVIVLALKGSETTFMCEYADETATIVEFLNRWITFCQSIISTLT
# light: DTVLTQSPALAVSPGERVTISCRASESVRTGVHWYQQKPGQQPKLLIYGASNLESGVPARFSGSGSGTDFTLTIDPVEADDTATYFCQQSWNDPFTFGSGTKLEIKRTVAAPSVFIFPPSDEQLKSGTASVVCLLNNFYPREAKVQWKVDNALQSGNSQESVTEQDSKDSTYSLSSTLTLSKADYEKHKVYACEVTHQGLSSPVTKSFNRGEC
# B2: 1H3-hIgG1-L6-hIL-2 (D20A/E95A/R38E) (protein)
# heavy: EVQLVESGGGLVQPGRSLKLSCAVSGFTFSDYAMAWVRQAPKKGLEWVATISYDGSRTYYRDSVKGRFTISRDNAKITLYLQMDSLRSEDTATYYCARHGSGYFDYWGQGVMVTVSS[not shown - human IgG1 constant region]SGGGGSAPTSSSTKKTQLQLEHLLLALQMILNGINNYKNPKLTEMLTFKFYMPKKATELKHLQCLEEELKPLEEVLNLAQSKNFHLRPRDLISNINVIVLALKGSETTFMCEYADETATIVEFLNRWITFCQSIISTLT
# light: B1 light
# B3: 1H3-hIgG1-L6-hIL-2 (D20A/E95A/R38Q) (protein)
# heavy: EVQLVESGGGLVQPGRSLKLSCAVSGFTFSDYAMAWVRQAPKKGLEWVATISYDGSRTYYRDSVKGRFTISRDNAKITLYLQMDSLRSEDTATYYCARHGSGYFDYWGQGVMVTVSS[not shown - human IgG1 constant region]SGGGGSAPTSSSTKKTQLQLEHLLLALQMILNGINNYKNPKLTQMLTFKFYMPKKATELKHLQCLEEELKPLEEVLNLAQSKNFHLRPRDLISNINVIVLALKGSETTFMCEYADETATIVEFLNRWITFCQSIISTLT
# light: B1 light
# B4: 1H3-hIgG1-L6-hIL-2 (D20A/E95A/F42A) (protein)
# heavy: EVQLVESGGGLVQPGRSLKLSCAVSGFTFSDYAMAWVRQAPKKGLEWVATISYDGSRTYYRDSVKGRFTISRDNAKITLYLQMDSLRSEDTATYYCARHGSGYFDYWGQGVMVTVSS[not shown - human IgG1 constant region]SGGGGSAPTSSSTKKTQLQLEHLLLALQMILNGINNYKNPKLTRMLTAKFYMPKKATELKHLQCLEEELKPLEEVLNLAQSKNFHLRPRDLISNINVIVLALKGSETTFMCEYADETATIVEFLNRWITFCQSIISTLT
# light: B1 light
# B5: 1H3-hIgG1-L6-hIL-2 (D20A/E95A/K43E) (protein)
# heavy: EVQLVESGGGLVQPGRSLKLSCAVSGFTFSDYAMAWVRQAPKKGLEWVATISYDGSRTYYRDSVKGRFTISRDNAKITLYLQMDSLRSEDTATYYCARHGSGYFDYWGQGVMVTVSS[not shown - human IgG1 constant region]SGGGGSAPTSSSTKKTQLQLEHLLLALQMILNGINNYKNPKLTRMLTFEFYMPKKATELKHLQCLEEELKPLEEVLNLAQSKNFHLRPRDLISNINVIVLALKGSETTFMCEYADETATIVEFLNRWITFCQSIISTLT
# light: B1 light
# B6: 1H3-hIgG1-L6-hIL-2 (Δ1-3APT/D20A/R38E) (protein)
# heavy: EVQLVESGGGLVQPGRSLKLSCAVSGFTFSDYAMAWVRQAPKKGLEWVATISYDGSRTYYRDSVKGRFTISRDNAKITLYLQMDSLRSEDTATYYCARHGSGYFDYWGQGVMVTVSS[not shown - human IgG1 constant region]SGGGGSSSSTKKTQLQLEHLLLALQMILNGINNYKNPKLTEMLTFKFYMPKKATELKHLQCLEEELKPLEEVLNLAQSKNFHLRPRDLISNINVIVLELKGSETTFMCEYADETATIVEFLNRWITFCQSIISTLT
# light: B1 light
# B7: 1H3-hIgG1-L6-hIL-2 (R38M/D20A) (protein)
# heavy: EVQLVESGGGLVQPGRSLKLSCAVSGFTFSDYAMAWVRQAPKKGLEWVATISYDGSRTYYRDSVKGRFTISRDNAKITLYLQMDSLRSEDTATYYCARHGSGYFDYWGQGVMVTVSS[not shown - about 450 residues with a human IgG1 Fc and changes]
# light: B1 light
# B8: 1H3-hIgG1-L6-hIL-2 (R38F/D20A) (protein)
# heavy: EVQLVESGGGLVQPGRSLKLSCAVSGFTFSDYAMAWVRQAPKKGLEWVATISYDGSRTYYRDSVKGRFTISRDNAKITLYLQMDSLRSEDTATYYCARHGSGYFDYWGQGVMVTVSS[not shown - about 450 residues with a human IgG1 Fc and changes]
# light: B1 light
# B9: 1H3-hIgG1-L6-hIL-2 (R38A/D20A) (protein)
# heavy: EVQLVESGGGLVQPGRSLKLSCAVSGFTFSDYAMAWVRQAPKKGLEWVATISYDGSRTYYRDSVKGRFTISRDNAKITLYLQMDSLRSEDTATYYCARHGSGYFDYWGQGVMVTVSS[not shown - about 450 residues with a human IgG1 Fc and changes]
# light: B1 light
# B10: 1H3-hIgG1-L6-hIL-2 (R38Q/D20A) (protein)
# heavy: EVQLVESGGGLVQPGRSLKLSCAVSGFTFSDYAMAWVRQAPKKGLEWVATISYDGSRTYYRDSVKGRFTISRDNAKITLYLQMDSLRSEDTATYYCARHGSGYFDYWGQGVMVTVSS[not shown - about 450 residues with a human IgG1 Fc and changes]
# light: B1 light
# B11: 1H3-hIgG1-L6-hIL-2 (K43E/D20A) (protein)
# heavy: EVQLVESGGGLVQPGRSLKLSCAVSGFTFSDYAMAWVRQAPKKGLEWVATISYDGSRTYYRDSVKGRFTISRDNAKITLYLQMDSLRSEDTATYYCARHGSGYFDYWGQGVMVTVSS[not shown - about 450 residues with a human IgG1 Fc and changes]
# light: B1 light
# B12: 1H3-hIgG1-L6-hIL-2 (R38Q/I92D) (protein)
# heavy: EVQLVESGGGLVQPGRSLKLSCAVSGFTFSDYAMAWVRQAPKKGLEWVATISYDGSRTYYRDSVKGRFTISRDNAKITLYLQMDSLRSEDTATYYCARHGSGYFDYWGQGVMVTVSS[not shown - about 450 residues with a human IgG1 Fc and changes]
# light: B1 light
# B13: 1H3-hIgG1-L6-hIL-2 (R38E/Q126D) (protein)
# heavy: EVQLVESGGGLVQPGRSLKLSCAVSGFTFSDYAMAWVRQAPKKGLEWVATISYDGSRTYYRDSVKGRFTISRDNAKITLYLQMDSLRSEDTATYYCARHGSGYFDYWGQGVMVTVSS[not shown - about 450 residues with a human IgG1 Fc and changes]
# light: B1 light
# Target: high-affinity hIL-2 receptor (IL-2Rαβγ) on NK-92 cells (human) (UniProt P01589)
# Assay: cell-based or functional assay
Binder,Agonistic Activity (NK-92) [%],Fold change from hIL-2 (NK-92) [fold],Fold change from rhIL-2 (NK-92) [fold]
B1,50,21,5320
B2,–,21,> 10000
B3,–,19,572
B4,70,21,369
B5,90,13,80
B6,–,13,–
B7,–,11,–
B8,–,12,–
B9,–,13,–
B10,–,14,–
B11,–,13,–
B12,–,14,–
B13,–,15,–

# Target: intermediate affinity hIL-2 receptor complex (IL-2Rβγ) on TF1+IL-2Rβ cells (human) (UniProt P14784)
# Assay: cell-based or functional assay
row,Binder,Fold change from hIL-2 (TF1 + IL-2Rβ) [fold]
1,B1,6
2,B2,5
3,B3,6
4,B4,5
5,B5,6
6,B6,1
7,B7,3
8,B8,3
9,B9,3
10,B10,3
11,B11,2
12,B12,2
13,B13,4

# Target: intermediate affinity hIL-2 receptor (hIL-2Rβγ) on TF1+IL-2Rβ cells (human) (UniProt P14784)
# Assay: cell-based or functional assay
Binder,Agonistic Activity (TF1 + IL-2Rβ) [%],Fold change from rhIL-2 (TF1 + IL-2Rβ) [fold]
B1,80,492
B2,90,439
B3,80,859
B4,90,73
B5,70,1880
B6,90,32

# Target: intermediate affinity hIL-2 receptor complex (IL-2Rβγ) (human) (UniProt P14784)
# Assay: cell-based or functional assay
Binder,"Fold change from rhIL-2 (TF1 + IL-2Rβ), pSTAT5 titration [fold]","Agonistic Activity (TF1 + IL-2Rβ), pSTAT5 titration [%]"
B6,6,–
B7,85,90
B8,124,90
B9,70,70
B10,91,70
B11,231,70
B12,48,90
B13,> 10000,40

# Target: high-affinity hIL-2 receptor (IL-2Rαβγ) (human) (UniProt P01589)
# Assay: cell-based or functional assay
Binder,"Agonistic Activity (NK-92), pSTAT5 titration [%]","Fold change from rhIL-2 (NK-92), pSTAT5 titration [fold]"
B1,60 to 70,> 10000
B2,70 to 90,> 10000
B3,70,3720
B4,90,–
B5,80 to 90,–
B7,90,786
B8,80,1070
B9,80,619
B10,80,4700
B11,90,584
B12,–,561
B13,60,> 10000
